Values marked as one replicate rest on one cluster of the flow cell; about a third of the high ones do not repeat.
tested on: ATP; assay: switch fluorescence ratio, 500 uM ATP over buffer (Cy3 cluster intensity, sum of 5 cycles each) (fold (ratio)); higher = stronger signal-on switching upon ATP binding; sequences stand for … in TCGTCGGCAGCGTCAGATGTGTATAAGAGACAGTTTTTTTTTTTTTTTTTTTTTTTTT…TC; settings: aptamer strand: ATP DNA aptamer (quencher-CACCTGGGGGAGTATTGCGGAGGAAGG + anchor), 100 nM annealed; ATP concentration: 500 uM; one replicate
Outline: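 Five buffer/ATP imaging cycles were run on Cy3-labelled switching-strand clusters on a modified Illumina MiSeq flow-cell, with NaOH stripping and re-annealing between cycles. In each cycle, clusters annealed to 100 nM quencher-labelled ATP aptamer were imaged in selection buffer, then after 15 min with 500 uM ATP at 22 °C. Per cluster, the fluorescence ratio is summed target-cycle over summed buffer-cycle Cy3 intensity, averaged per switch-domain sequence. Only clusters within 100-1000 RFU were kept.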
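Also: ATP exposure 15 min at 22 °C before imaging.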

Sequence	switch fluorescence ratio
TCGTTTCAAA	0.993
TCGTTTCTT	0.988
TCGTTTTCGC	1.1
TCTAAAAATA	0.967
TCTAAATG	1
TCTAAGCCTT	1.05
TCTAATCAAC	0.998
TCTAATCCAC	1.05
TCTACAAACG	1.39
TCTACGAGAC	1.57
TCTACTTATT	1.03
TCTAGAAGGG	0.999
TCTAGAAGTG	0.938
TCTAGACAGG	1.04
TCTAGAGACC	0.993
TCTAGCAATT	2.11
TCTAGCTCGG	0.989
TCTAGGATAA	0.982
TCTAGGGGAA	1.01
TCTAGTAGAT	0.974
TCTATAAAAG	0.991
TCTATCAAAA	1.04
TCTATGACAT	0.97
TCTATGGAA	1.03
TCTATTCGCA	1

Sequence	switch fluorescence ratio
TCTATTTAGG	1.01
TCTCAAAAA	1.07
TCTCACAGGG	1.51
TCTCAGCTTC	1.3
TCTCATATTA	0.987
TCTCATCACA	0.999
TCTCATGTGG	1.02
TCTCCAATCG	1.14
TCTCCAGTCA	1.12
TCTCCCATG	1.28
TCTCCCCATT	1.42
TCTCCGGTGT	1.78
TCTCCTCGTA	1.16
TCTCGCAAGG	1.95
TCTCGCGGGT	1.01
TCTCGGGCTA	1.08
TCTCTAAGAC	1.35
TCTCTAATTG	0.974
TCTCTACAGC	1.02
TCTCTCGGTC	1.11
TCTCTCTTTA	0.972
TCTCTTGAGC	1.06
TCTG	0.972
TCTGAAAGGT	1.01
TCTGAATTA	1.02

Sequence	switch fluorescence ratio
TCTGAGCG	0.992
TCTGAGCGG	1.34
TCTGAGGGTG	0.997
TCTGAGGTAG	1
TCTGCACATG	1.04
TCTGCATCAT	1.07
TCTGCATGG	1.14
TCTGCCGTAC	1.22
TCTGCCTGAT	0.997
TCTGCTCAGT	1.03
TCTGCTCGGT	1.02
TCTGCTCTTA	1.04
TCTGCTTGCT	1.03
TCTGGACGGC	1.04
TCTGGATGAA	1.01
TCTGGCACCG	1
TCTGGCCTCA	1.05
TCTGGCCTGT	1.01
TCTGGCGCGG	1.05
TCTGGGACTC	1.01
TCTGGGAGAC	1.23
TCTGGGATCG	1
TCTGGGATGA	0.924
TCTGGGATGG	0.921
TCTGGGCAT	1.48

Sequence	switch fluorescence ratio
TCTGGGCTGG	1.02
TCTGGGTCTT	0.998
TCTGGTTG	0.999
TCTGTAA	1.09
TCTGTAGGGT	0.987
TCTGTCTCGA	1
TCTGTGACGT	1.03
TCTGTGATTA	0.97
TCTGTGCTAT	1.08
TCTGTGTTCC	1.06
TCTGTTAGCT	1.03
TCTTAACCGA	1.03
TCTTAAGACT	1.02
TCTTACAGA	1
TCTTACATT	0.985
TCTTACCGGC	0.935
TCTTACGGTT	0.964
TCTTACGTA	1.09
TCTTACTTTC	1.04
TCTTAGATCA	1.01
TCTTATAGAG	0.968
TCTTATGGGT	0.944
TCTTATTTGC	0.99
TCTTCAAGGG	1.03
TCTTCATCCA	1.24
